In the supplement of paper PMC10126150 one finds switch fluorescence ratio data, which are given here for 67 sequences.

Sequences with one replicate were seen in a single cluster, so their values are uncertain.
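Also: ATP exposure 15 min at 22 °C before imaging.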

The series has as its system ATP. As to the kind of experiment: switch fluorescence ratio, 500 uM ATP over buffer (Cy3 cluster intensity, sum of 5 cycles each) (fold (ratio)); higher = stronger signal-on switching upon ATP binding; sequences stand for … in TCGTCGGCAGCGTCAGATGTGTATAAGAGACAGTTTTTTTTTTTTTTTTTTTTTTTTT…TC. Conditions: aptamer strand: ATP DNA aptamer (quencher-CACCTGGGGGAGTATTGCGGAGGAAGG + anchor), 100 nM annealed; ATP concentration: 500 uM; one replicate. A digest of the protocol:
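Cy3-labelled switching-strand clusters on a modified Illumina MiSeq flow-cell were annealed to 100 nM quencher-labelled ATP aptamer and imaged first in selection buffer, then after 15 min with 500 uM ATP at 22 °C. NaOH stripping and re-annealing separated each of five buffer/ATP cycles, and clusters outside 100-1000 RFU were excluded. The fluorescence ratio sums target-cycle Cy3 intensity over buffer-cycle Cy3 intensity per cluster and averages it per switch-domain sequence.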
Consider CCGAATATGT, for which the switch fluorescence ratio turned out to be 1.02.

Turning to CGTTGCAACT, the switch fluorescence ratio came out at 0.957.

Take CAATCACATG: the switch fluorescence ratio worked out at 1.08.

Regarding CCGTCTGTGG, the switch fluorescence ratio was 1.02.

In the case of TAATGGTTTC, the switch fluorescence ratio was found to be 0.993.

With TGAGGGCTCC, the switch fluorescence ratio was 0.988.

On to AAGACTAGCT, for which the switch fluorescence ratio was found to be 0.992.

As for TAATGGTTC, the switch fluorescence ratio was 0.947.

With GGGGCATTAC, the switch fluorescence ratio came out at 3.45.

In the case of CGTTCGCGGA, the switch fluorescence ratio turned out to be 1.11.

Regarding CAGGAGGCAA, the switch fluorescence ratio came to 2.69.

In the case of TGATACCGAT, the switch fluorescence ratio was 1.05.

For TTGAGGCACC, the switch fluorescence ratio came out at 0.917.

For the sequence ACCAGCTTCG, the switch fluorescence ratio turned out to be 1.06.

CAATCGGATT: the switch fluorescence ratio is 1.07.

TTATACAAAA: the switch fluorescence ratio was found to be 1.02.

Turning to CCCGCGGATG, the switch fluorescence ratio amounted to 1.14.

As to TCTTCCCGCG, the switch fluorescence ratio is 1.21.

Take TCAGCTACAT: the switch fluorescence ratio came out at 1.04.

TAAAACCTGT: the switch fluorescence ratio was 1.07.

Regarding GGATCCGGTA, the switch fluorescence ratio was determined as 1.04.

Take CCGAGATCTG: the switch fluorescence ratio came out at 1.06.

On to TAGGTTGCAT, for which the switch fluorescence ratio worked out at 0.956.

TTCGGTCCAT: the switch fluorescence ratio was 1.01.

As for GCATTATGAG, the switch fluorescence ratio stood at 1.08.

Turning to TAGTTGTGCT, the switch fluorescence ratio was determined as 0.975.

In the case of AGGGGCTAAC, the switch fluorescence ratio is 1.01.

As for AGAAGACTAA, the switch fluorescence ratio stood at 1.03.

Take GATGTACGG: the switch fluorescence ratio is 1.07.

Turning to TTGTGAGTTA, the switch fluorescence ratio amounted to 1.01.

Take TTAGCTTAAC: the switch fluorescence ratio worked out at 1.2.

As to TTTTGCGGA, the switch fluorescence ratio came to 1.01.

As to GGTAGTTGTA, the switch fluorescence ratio is 0.983.

Take AGGCCACTGC: the switch fluorescence ratio came to 0.967.

Regarding TTAGAAACC, the switch fluorescence ratio worked out at 0.992.

CTGTAATCAG: the switch fluorescence ratio came out at 0.972.

As to AGTAAGTTAA, the switch fluorescence ratio amounted to 1.05.

In the case of GAGGGATTAT, the switch fluorescence ratio turned out to be 1.04.

As for AGAGTGCTGG, the switch fluorescence ratio came to 0.99.

As for TCCGCAATTT, the switch fluorescence ratio was determined as 1.04.

On to GCACAAGT, for which the switch fluorescence ratio stood at 0.981.

With TCCGCGGGCT, the switch fluorescence ratio worked out at 1.33.

Regarding GGTACTGCTA, the switch fluorescence ratio came to 1.13.

As for ATAAGAGTTG, the switch fluorescence ratio stood at 0.939.

For ATAGGGTAAC, the switch fluorescence ratio came out at 1.

Take GCTATCCTCG: the switch fluorescence ratio turned out to be 1.05.

Regarding TCGCCTGACA, the switch fluorescence ratio came out at 1.01.

For the sequence GAAGTTGTT, the switch fluorescence ratio was determined as 0.994.

In the case of CGAGGACGAC, the switch fluorescence ratio worked out at 0.97.

For GATATATCGA, the switch fluorescence ratio amounted to 1.01.

Consider AATCGGCAGA, for which the switch fluorescence ratio amounted to 0.95.

In the case of TGCAAGGCGT, the switch fluorescence ratio was found to be 0.997.

As to CATTACATTC, the switch fluorescence ratio is 1.01.

Regarding TGAACGGAGC, the switch fluorescence ratio is 1.06.

On to AATTGGCGGA, for which the switch fluorescence ratio stood at 0.999.

As for GCGGAGTAGG, the switch fluorescence ratio was 1.02.

Consider GATTTTACAG, for which the switch fluorescence ratio worked out at 0.999.

As for GCTTATTTTG, the switch fluorescence ratio was 1.05.

With TTATAGCACA, the switch fluorescence ratio was 1.04.

Take ATATAGGTAC: the switch fluorescence ratio turned out to be 1.05.

Regarding AACGTGAGA, the switch fluorescence ratio was 1.02.

On to GACGTCTCAA, for which the switch fluorescence ratio was 0.949.

Turning to CACATTTAAT, the switch fluorescence ratio stood at 1.06.

As for TAAATCACAG, the switch fluorescence ratio was 1.02.

GCAGTTGTTT: the switch fluorescence ratio was found to be 1.03.

With CCCCTTCACG, the switch fluorescence ratio came to 1.14.

As for TAAATCAAAA, the switch fluorescence ratio came out at 1.04.
